The other results are listed elsewhere or left out. The list includes weakly bound sequences.

This experiment has as its target MaxL homodimer (UniProt P61244). Description: universal protein-binding microarray (PBM). Conditions: PBS-based mixture, 10 nM His-tagged protein dimer, 2% milk, 200 ng/uL BSA, 50 ng/uL salmon testes DNA, 0.02% TX-100; detection with Alexa 488 anti-His …; high values mean tight binding; most listed sequences are background and not binding sites; double strand, one strand shown.
Chain of UniProt P61244 (P61244 whole entry): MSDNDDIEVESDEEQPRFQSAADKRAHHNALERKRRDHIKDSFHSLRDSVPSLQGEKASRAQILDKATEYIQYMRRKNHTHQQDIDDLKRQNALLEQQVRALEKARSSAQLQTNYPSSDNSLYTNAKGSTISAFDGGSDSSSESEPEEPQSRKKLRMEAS
With GACATGCA, the binding signal (normalized occupancy) came out at 0.0909. Regarding AGGCCATC, the binding signal (normalized occupancy) was found to be 0.0776. Then CGGCACGA, with 0.0862. With CACTTAGC the figure was 0.0722. As to CCAGCCCC, the binding signal (normalized occupancy) turned out to be 0.0751. With AACGACTG the figure was 0.0722; with TACCCAAA, 0.074. AACCCCTC: the binding signal (normalized occupancy) was 0.0767. Then ACATGCTC, with 0.106. With ATTTCTTA the figure was 0.0753; with CGGGCATA, 0.0768.

On to AAATTCTT, for which the binding signal (normalized occupancy) was 0.0674. Then CTAGAAGC, with 0.07; and CGAGGTCC, with 0.0694; and GCGATTCA, with 0.0717. For the sequence AATCGATT, the binding signal (normalized occupancy) is 0.0687.

On to AAGTCACA, for which the binding signal (normalized occupancy) turned out to be 0.0854. In the case of CAACCGAA, the binding signal (normalized occupancy) amounted to 0.0693. Turning to CATTTCAA, the binding signal (normalized occupancy) was 0.0846. Then CGTCCGAA, with 0.0722; and CGAAGGAC, with 0.0679.

Take CTTGGTTC: the binding signal (normalized occupancy) was determined as 0.0717.

On to TACTCCAA, for which the binding signal (normalized occupancy) was determined as 0.074. Then CGGCACCC, with 0.0747; and CCTCGAAA, with 0.0699. Consider CGCACCTA, for which the binding signal (normalized occupancy) amounted to 0.0751. Consider AGGACTAT, for which the binding signal (normalized occupancy) is 0.0778. With CGTGATGA the figure was 0.0882; with ATAGGGCA, 0.0795; with CGACTGAC, 0.0719. With GCGCTAAA the figure was 0.0748; with GATACCGC, 0.0772. Turning to AGATGAGC, the binding signal (normalized occupancy) worked out at 0.0754. Then CACTTAAG, with 0.0753; and CTTATCGC, with 0.0737. Take ACAGGCTG: the binding signal (normalized occupancy) is 0.0736. In the case of AGAAAGCT, the binding signal (normalized occupancy) came out at 0.0689. As for CCCGTCTC, the binding signal (normalized occupancy) was determined as 0.0737. With GTACCCGA the figure was 0.074; with ACCAGGGG, 0.0738. Then CGTTTATA, with 0.08. Then GGACTGTA, with 0.077. CCCCGATA: the binding signal (normalized occupancy) was determined as 0.0749.

Take ATGTTTTC: the binding signal (normalized occupancy) came to 0.0835. Then CTTACCCC, with 0.0826. With CCGCCGTC the figure was 0.0691. With ACGCCAAC the figure was 0.0724; with ACGGGATG, 0.0782; with ACATCATG, 0.0903. Take AGATAAGA: the binding signal (normalized occupancy) is 0.0781. With AGTAGAAC the figure was 0.075; with GCTGAGCA, 0.0743.

Take GTTATAAC: the binding signal (normalized occupancy) was 0.0842. Then ATCGAGAT, with 0.0791; and AAAGGGCG, with 0.0669. With CGCAGGGC the figure was 0.0662; with GCAGGTAC, 0.0748; with ATAGCTAG, 0.0778. With GCCACCGA the figure was 0.0708; with GGGTGTTA, 0.0779; with TCAGTCAA, 0.0745. For AGAAGGGC, the binding signal (normalized occupancy) is 0.0743. With CCTCATTC the figure was 0.0779; with GACGGGGA, 0.0727. Then ACGGGCTC, with 0.0639. With CGCAAACG the figure was 0.0728. Regarding GAGCAAAA, the binding signal (normalized occupancy) came to 0.0707. With ACGCTATC the figure was 0.0885; with CGCTTAGC, 0.064; with ACGCACAG, 0.076. Turning to AAATTTTG, the binding signal (normalized occupancy) was 0.0722. Then ATGTGTGA, with 0.102.

For the sequence TTTATAAA, the binding signal (normalized occupancy) came out at 0.073.

Turning to ATAGGGGC, the binding signal (normalized occupancy) stood at 0.0792. With AGCACTCC the figure was 0.0771; with AGACTCGG, 0.068; with CCAAACCA, 0.0713. With CTTGTGCC the figure was 0.0778. With GGCCACTA the figure was 0.0777; with TCTGTTCA, 0.0799; with AAGTCACC, 0.0767.

With CGACTATC, the binding signal (normalized occupancy) came to 0.077. With ATCCAAAA the figure was 0.074; with CCTTCTGA, 0.0706; with CCCTGCGC, 0.0693. As to AAACTCAT, the binding signal (normalized occupancy) turned out to be 0.0797.

As to CACGTGTC, the binding signal (normalized occupancy) came to 0.574. As for CATTGTAG, the binding signal (normalized occupancy) is 0.0823. Then GCAATACA, with 0.0803; and ACCAGATG, with 0.0885.

ACCTGACC: the binding signal (normalized occupancy) came out at 0.0857. For AACAGGTC, the binding signal (normalized occupancy) was 0.0733. Then ACAAGCCG, with 0.0707; and CTATTGAA, with 0.0752.

With CCTCTCTC, the binding signal (normalized occupancy) is 0.0759.

Consider TACACTCA, for which the binding signal (normalized occupancy) came to 0.0791. Then GTGCAGGA, with 0.0768; and CCGAATGC, with 0.0707.

As for CCTATTCG, the binding signal (normalized occupancy) is 0.0736. Then CAGCGGGG, with 0.0742; and AACCGGAC, with 0.0693; and AGCGAGCG, with 0.0699. As for CCAGAGGC, the binding signal (normalized occupancy) worked out at 0.0672. With GTACAAAC the figure was 0.0733. ACACACTG: the binding signal (normalized occupancy) turned out to be 0.0802. Then CCAGACAA, with 0.0724; and CGAAAATC, with 0.0726; and ACGTTCCA, with 0.0802.

In the case of CAGGGTAA, the binding signal (normalized occupancy) was 0.0757. Then AGAACTCA, with 0.071; and CAGATCGA, with 0.0712; and GCTAACCA, with 0.0769. Then AGTATAGA, with 0.0782; and AATGATAA, with 0.0818.

Consider CGGGGCGA, for which the binding signal (normalized occupancy) was 0.0669. With GGCTTGCA the figure was 0.071. With CGAACAGC the figure was 0.074; with GGCCCATA, 0.0724. With ACACACCT the figure was 0.0881; with TAACAACA, 0.0722.

GTTATAAA: the binding signal (normalized occupancy) came out at 0.0765.

As to GAGTGACC, the binding signal (normalized occupancy) came to 0.0722. Then GGCTGAGA, with 0.0684; and AGGGACTC, with 0.0701; and AACAAGGG, with 0.0725. Then CAGGTTGA, with 0.0814; and CGCATATA, with 0.0794.

On to GGAGAGAA, for which the binding signal (normalized occupancy) stood at 0.0761. With AACTAGGC the figure was 0.0709. With CGCGTAAA the figure was 0.0695; with GCTACTAC, 0.0796; with TGCCCACA, 0.0859. Then ACAGCTCG, with 0.071; and AGTAACGG, with 0.0695.

CAAATCAC: the binding signal (normalized occupancy) turned out to be 0.0844. With GCACCTAC the figure was 0.0737; with GATCGCAA, 0.0727; with GGAAAACC, 0.0739. As to AGTTTCTC, the binding signal (normalized occupancy) worked out at 0.0717. With ATGTGTCC the figure was 0.0851; with CGGGGCTA, 0.0717. Consider GAAATCAC, for which the binding signal (normalized occupancy) is 0.0765. With ACCTGGGC the figure was 0.0723; with CCAGCACG, 0.0876. For the sequence ATATCGAA, the binding signal (normalized occupancy) worked out at 0.0828. With CCAAGGGC the figure was 0.0653.

Regarding GATTACGC, the binding signal (normalized occupancy) is 0.0793. With ACGTCGTA the figure was 0.0858; with CGCCATCC, 0.077.

For the sequence CTCTCTTA, the binding signal (normalized occupancy) was found to be 0.0759. Then ATCGGCGG, with 0.0727. Then TGGCAAAA, with 0.0788.

With ATTATGTA, the binding signal (normalized occupancy) came to 0.0828. Consider ATTGAGCC, for which the binding signal (normalized occupancy) amounted to 0.0717. Then ACTTTCCG, with 0.0721. Then AATGCCCC, with 0.0836; and GAACAGAA, with 0.0707; and CACACGGA, with 0.0847. With CGTAGTAA the figure was 0.0792. As to CACCTACC, the binding signal (normalized occupancy) turned out to be 0.0736. On to CGTATGAC, for which the binding signal (normalized occupancy) came to 0.0817.

For CACGGCGG, the binding signal (normalized occupancy) was found to be 0.0746. With ACTCGCAT the figure was 0.0808. As for CGCTACTA, the binding signal (normalized occupancy) came out at 0.073. With GAGTACAC, the binding signal (normalized occupancy) is 0.0778. With GGCCGCAA the figure was 0.0676. In the case of ACTCGGCC, the binding signal (normalized occupancy) turned out to be 0.0694. With GGTCGTAA the figure was 0.0728; with CGGACCAA, 0.0729; with GCCGAGCC, 0.0652. Then CGTCGCGA, with 0.07; and CCGTGATC, with 0.0778.

Values taken from PMC4242493.
